In experiment [1] the target is T1, Migration and invasion inhibitory protein (MIIP) expressed from adenovirus (Ad-MIIP) in HEC1B cells (human) (UniProt Q5JXC2).
T1 sequence: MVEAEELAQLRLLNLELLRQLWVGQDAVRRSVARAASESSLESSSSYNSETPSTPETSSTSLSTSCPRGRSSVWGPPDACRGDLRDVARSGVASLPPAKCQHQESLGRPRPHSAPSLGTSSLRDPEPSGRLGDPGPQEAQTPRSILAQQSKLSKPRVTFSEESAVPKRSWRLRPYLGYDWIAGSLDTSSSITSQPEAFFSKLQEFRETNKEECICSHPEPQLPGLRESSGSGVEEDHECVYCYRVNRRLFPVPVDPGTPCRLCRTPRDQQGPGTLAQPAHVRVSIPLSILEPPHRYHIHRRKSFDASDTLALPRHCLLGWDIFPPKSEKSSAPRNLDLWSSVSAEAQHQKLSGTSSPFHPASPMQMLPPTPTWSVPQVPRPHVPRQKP
Briefly: co-IP; anti-MIIP antibody, total proteins from MIIP-overexpressing HEC1B cells; blot for PAK1.

Sequences of proteins named here, by UniProt entry; tags and fusion partners are left off.
UniProt Q13153: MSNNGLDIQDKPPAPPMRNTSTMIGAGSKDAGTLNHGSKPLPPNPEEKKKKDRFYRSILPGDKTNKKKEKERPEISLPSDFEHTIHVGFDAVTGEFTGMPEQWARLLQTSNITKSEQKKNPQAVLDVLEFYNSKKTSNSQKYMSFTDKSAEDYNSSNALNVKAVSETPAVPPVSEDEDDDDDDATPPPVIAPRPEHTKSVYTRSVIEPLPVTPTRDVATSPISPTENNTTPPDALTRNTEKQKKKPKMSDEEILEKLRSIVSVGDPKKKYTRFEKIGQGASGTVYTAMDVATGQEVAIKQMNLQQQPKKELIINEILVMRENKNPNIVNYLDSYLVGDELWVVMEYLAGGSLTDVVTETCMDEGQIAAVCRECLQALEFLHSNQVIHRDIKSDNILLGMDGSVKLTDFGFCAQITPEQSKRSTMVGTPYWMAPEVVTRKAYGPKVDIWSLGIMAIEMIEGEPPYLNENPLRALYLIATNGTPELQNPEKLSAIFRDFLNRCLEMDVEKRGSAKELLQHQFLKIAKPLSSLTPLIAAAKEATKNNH

Experiment [2] deals with T2, HA-tagged MIIP (1-283), C-terminal deletion (human) (UniProt Q5JXC2).
T2 sequence: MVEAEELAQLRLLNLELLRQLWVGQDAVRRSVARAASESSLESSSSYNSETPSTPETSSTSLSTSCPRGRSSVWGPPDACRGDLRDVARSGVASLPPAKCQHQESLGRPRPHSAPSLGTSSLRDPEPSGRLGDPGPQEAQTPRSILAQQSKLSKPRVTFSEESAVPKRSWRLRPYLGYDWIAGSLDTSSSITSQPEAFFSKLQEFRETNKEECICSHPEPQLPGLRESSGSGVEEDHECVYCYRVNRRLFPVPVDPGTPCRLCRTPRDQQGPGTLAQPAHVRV
Briefly: co-IP; anti-HA immunoprecipitation from HEC1B cells transfected for 24 h with HA-tagged wild-type or truncated MIIP; blot for PAK1 and HA.

Experiment [3] concerns the target T3, HA-tagged MIIP (1-313), C-terminal deletion (human) (UniProt Q5JXC2).
T3 sequence: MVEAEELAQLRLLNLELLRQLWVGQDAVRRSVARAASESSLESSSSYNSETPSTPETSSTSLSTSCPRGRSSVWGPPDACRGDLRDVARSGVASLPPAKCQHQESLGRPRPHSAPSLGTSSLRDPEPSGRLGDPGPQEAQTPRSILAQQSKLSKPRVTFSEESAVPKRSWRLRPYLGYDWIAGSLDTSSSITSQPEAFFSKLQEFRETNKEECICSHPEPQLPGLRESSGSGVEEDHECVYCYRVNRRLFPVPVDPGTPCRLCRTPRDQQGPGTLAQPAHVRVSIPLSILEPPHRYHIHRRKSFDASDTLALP
The experiment is described as above.

Experiment [4] concerns the target T4, HA-tagged MIIP (1-360), C-terminal deletion (human) (UniProt Q5JXC2).
T4 sequence: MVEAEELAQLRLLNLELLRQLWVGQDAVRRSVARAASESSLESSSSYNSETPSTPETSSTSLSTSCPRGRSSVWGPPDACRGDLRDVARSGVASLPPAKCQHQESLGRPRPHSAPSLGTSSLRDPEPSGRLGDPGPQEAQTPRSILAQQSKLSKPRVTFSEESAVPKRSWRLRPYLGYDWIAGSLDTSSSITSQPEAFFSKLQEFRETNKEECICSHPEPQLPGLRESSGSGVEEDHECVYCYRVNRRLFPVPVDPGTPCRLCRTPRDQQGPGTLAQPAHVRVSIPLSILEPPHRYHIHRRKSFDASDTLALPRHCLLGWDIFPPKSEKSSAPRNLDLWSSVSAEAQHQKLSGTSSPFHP
Described as above.

The target in experiment [5] is T5, HA-tagged wild-type MIIP (human) (UniProt Q5JXC2).
T5 sequence: T1 sequence
The description is as above.

Experiment [6] addresses Endogenous PAK1 (p21-activating kinase 1) (human (endogenous in HEC1B and HEC1A)) (UniProt Q13153). Briefly: co-IP; reverse co-IP with anti-PAK1 antibody, total proteins from HEC1A cells, both endogenous; blot for MIIP.

No constants are given. Whether binding was seen depends on the method and setting. Binding seen in cells or lysates may run through a third protein. Some entries that bind do so weakly or less than the wild type. For part of these data: Sequences can lack the tags named with a protein.

With “Endogenous PAK1 (p21-activating kinase 1) (from UniProt Q13153 1-545)”, the binding entry in experiment [1] is recorded as “binds”; in experiment [2] it was “no binding”; in experiment [3] it was “no binding”; in experiment [4] it was “no binding”; in experiment [5], “binds”.

B1: Endogenous MIIP of HEC1A cells (protein, UniProt Q5JXC2 1-388)
chain: T1 sequence
With B1, the binding entry in experiment [6] was “binds”.

(Values after paper PMC5069779.)
